Hit rate of the full screen: of about 310,000 compounds, about 14,000 (4.5%) showed an effect of 50% or more. The effect is printed as a negative number. This is one part of the list.
Each compound was assayed against human ether-à-go-go-related gene (hERG) potassium channel (human, UniProt Q12809) (assay: primary screen, population patch clamp on CHO cells stably expressing hERG).
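Note: peak tail current of the secondary pulse compared with the same well before compound.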

human ether-à-go-go-related gene (hERG) potassium channel, sequence (Q12809 whole entry, looked up): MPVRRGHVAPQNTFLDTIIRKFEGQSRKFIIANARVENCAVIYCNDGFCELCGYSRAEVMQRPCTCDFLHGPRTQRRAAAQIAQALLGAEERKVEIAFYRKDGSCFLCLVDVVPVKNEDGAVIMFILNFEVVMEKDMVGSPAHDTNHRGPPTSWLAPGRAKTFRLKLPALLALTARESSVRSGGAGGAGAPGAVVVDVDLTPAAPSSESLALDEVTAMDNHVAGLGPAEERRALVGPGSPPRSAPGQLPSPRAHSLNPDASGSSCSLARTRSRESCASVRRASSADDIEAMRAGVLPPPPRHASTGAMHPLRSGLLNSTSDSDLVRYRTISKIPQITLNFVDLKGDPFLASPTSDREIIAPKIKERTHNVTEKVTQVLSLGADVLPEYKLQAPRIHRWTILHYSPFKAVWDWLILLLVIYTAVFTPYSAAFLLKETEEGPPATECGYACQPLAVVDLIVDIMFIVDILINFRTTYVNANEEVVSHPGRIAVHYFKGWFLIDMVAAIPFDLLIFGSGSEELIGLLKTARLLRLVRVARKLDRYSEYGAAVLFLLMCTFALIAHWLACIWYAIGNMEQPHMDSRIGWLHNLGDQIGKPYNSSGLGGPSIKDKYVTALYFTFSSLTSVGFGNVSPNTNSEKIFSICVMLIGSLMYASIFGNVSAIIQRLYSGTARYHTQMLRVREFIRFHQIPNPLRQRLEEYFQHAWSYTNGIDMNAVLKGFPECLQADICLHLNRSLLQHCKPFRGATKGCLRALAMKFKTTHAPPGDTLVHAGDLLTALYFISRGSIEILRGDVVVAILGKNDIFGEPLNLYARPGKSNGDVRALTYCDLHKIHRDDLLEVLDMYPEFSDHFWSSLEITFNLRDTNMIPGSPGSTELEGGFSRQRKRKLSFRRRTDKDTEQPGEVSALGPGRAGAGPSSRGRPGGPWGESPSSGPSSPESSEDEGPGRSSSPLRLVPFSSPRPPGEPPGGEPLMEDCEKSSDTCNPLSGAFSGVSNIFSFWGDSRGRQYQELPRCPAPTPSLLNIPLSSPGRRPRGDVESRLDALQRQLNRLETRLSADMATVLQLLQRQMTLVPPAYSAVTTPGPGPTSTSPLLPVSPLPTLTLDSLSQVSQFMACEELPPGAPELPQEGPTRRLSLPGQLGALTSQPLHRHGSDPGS

Row | SMILES | hERG current change (%, negative = inhibition) at 10uM [%]
1 | Cc1cc(C)n(-c2ccc(C(=O)Nc3cccc([N+](=O)[O-])c3)cc2)n1 | 40.2
2 | CS(=O)(=O)Nc1ccc(C(=O)N2CC(=O)Nc3ccccc32)cc1 | 9.74
3 | COCCNC(=O)CSc1ncnc2sc(-c3ccccc3)cc12 | 2.83
4 | c1ccc2cc(Cn3ccnc3)ccc2c1 | 7.55
5 | Cc1ccc(NC(=O)CS(=O)CC(=O)Nc2cnc3ccccc3c2)cc1Cl (stereo not shown) | 12.9
6 | CN(C)S(=O)(=O)c1ccc2nc(NC(=O)c3cccnc3)sc2c1 | 12.1
7 | Cc1cccc(OCCn2c(CCCO)nc3ccccc32)c1 | -23.2
8 | C[n+]1ccc(C(=O)N/N=C/c2ccco2)cc1.[I-] | 26.7
9 | NC(=O)c1sc2nc(N3CCOCC3)c3c(c2c1N)CCCC3 | 8.71
10 | O=C(NCc1ccco1)C1CCN(S(=O)(=O)c2cccc([N+](=O)[O-])c2)CC1 | -11.4
11 | CC(C)c1ccc(OCCCCCN2CCOCC2)cc1.O=C(O)C(=O)O | -24.9
12 | Cc1[nH]n(-c2ccccc2)c(=O)c1C1(C(F)(F)F)C(=O)N(c2ccccc2)C2=C1C(=O)CC(C)(C)C2 (stereo not shown) | 28.4
13 | Cc1cccc(-n2ncc3c2CCCC3NC(=O)Cc2c(C)noc2C)c1C (stereo not shown) | 15.9
14 | O=C(CCCN1C(=O)/C(=C/c2ccco2)SC1=S)Nc1ccccc1 | -8.05
15 | CC(C)(C)S(=O)(=O)c1ccccc1C(=O)O | 2.89
16 | O=C1CCNc2cc3ccccc3cc21 | -1.11
17 | OCC(O)/C=N/Nc1nc(Nc2ccccc2)nc(Nc2ccccc2)n1 (stereo not shown) | -6.41
18 | Cc1nc2ccccc2c(=O)n1/N=C/c1ccncc1 | -5.53
19 | COC(=O)c1scc(C)c1N/N=C(\C)c1ccc(F)cc1F | 3.33
20 | CS(=O)(=O)c1ccc(-n2nnc3ccccc32)c([N+](=O)[O-])c1 | -0.571
21 | COc1cccc(CSc2nc3cc4c(cc3cc2C)OCCO4)c1 | 14.7
22 | Clc1ccc(CCNc2nc3ccccc3s2)cc1 | 3.07

Row | SMILES | hERG current change (%, negative = inhibition) at 10uM [%]
23 | CN(CCOc1ccc(Cl)cc1)C(=O)CN1C(=O)NC2(CCCCC2)C1=O | -31.3
24 | Cc1ccc2[nH]c(=O)c3cc(C(=O)N(C)Cc4ccco4)sc3c2c1 | 5.23
25 | COc1ccc2ccccc2c1/C=N/n1cnnc1 | 1.52
26 | C#CCOCCOCCOCCNc1nc(N2CCN(C(=O)[C@H]([C@@H](C)CC)n3cc([C@@H](N)CC(C)C)nn3)CC2)nc(N2CCN(C(=O)[C@H]([C@@H](C)CC)n3cc([C@@H](N)CC(C)C)nn3)CC2)n1.Cl | 8.18
27 | COc1ccc(N2CCN(C(=O)COC(=O)COc3cccc(C(F)(F)F)c3)CC2)cc1 | -2.98
28 | Cn1cc([N+](=O)[O-])c(C(=O)NCc2cc3cc(Cl)ccc3[nH]2)n1 | -10.8
29 | C/C(=N\NC(=O)Cn1ccc(C(F)(F)F)n1)c1ccc2c(c1)OCO2 | 3
30 | COCCOC(=O)C1=C(C)NC2=C(C(=O)CC(C)(C)C2)C1c1cccnc1 (stereo not shown) | 15.2
31 | COc1cccc(C(=O)N/N=c2/oc3ccccc3cc2C(N)=O)c1 | -4.21
32 | O=C(CSc1nnc(Cc2ccccc2)o1)c1ccc(F)cc1 | -3.62
33 | COCC(C)N1CCC(n2nccc2NC(=O)c2ccc3c(c2)OCO3)CC1 (stereo not shown) | 6.9
34 | Cc1cnc(CN2CCCC(C(=O)c3ccc4c5c(cccc35)CC4)C2)[nH]1 (stereo not shown) | -31.7
35 | Cc1ccc(NC(=O)NNC(=O)C2CC(c3cccnc3)=NO2)cc1 (stereo not shown) | 4.19
36 | C/C(CC(=O)Nc1cccc(Br)c1)=N\NC(=O)c1ccc(O)cc1O | 17.3
37 | O=C(CSc1ccc(Cl)cc1)N1CCN(c2c(Cl)cccc2[N+](=O)[O-])CC1 | -17.2
38 | Cc1nc2ccccc2c(=O)n1-c1ccc(Br)cn1 | -12.1
39 | O=[N+]([O-])c1ccccc1S(=O)(=O)NCc1ccco1 | 0.0868
40 | Clc1ccc(CSc2nnc(-c3ccncc3)o2)cc1 | -11.5
41 | COc1ccc(OC)c(S(=O)(=O)Nc2cc(C(=O)O)ccc2N2CC3CC(C2)c2cccc(=O)n2C3)c1 (stereo not shown) | 16.8
42 | COC(=O)c1ccc(NC(=O)CSc2nnc(-c3ccccc3Br)n2-c2ccccc2)cc1 | 3.33
43 | Cc1nnc(SCC(=O)O)o1 | 15
44 | Clc1cccc(-c2sc(Nc3ccccc3)n[n+]2-c2ccccc2)c1Cl.[Cl-] | 5.53

Row | SMILES | hERG current change (%, negative = inhibition) at 10uM [%]
45 | O=C(Nc1ccccc1C(=O)NCCN1CCOCC1)c1ccc(Cl)cc1Cl | -9.15
46 | C/C(=N\N1CCCCCC1)c1c(O)n(-c2ccc(Cl)cc2)c(=O)[nH]c1=O | 7.42
47 | COc1cc(CC(=O)N(c2ccccc2)c2nc(C)cs2)cc(OC)c1OC | -14.8
48 | CC1=CC(=C2C(=O)NC(=S)NC2=O)C=C(C(F)(F)F)N1C | 8.8
49 | CCOc1ccc(CN(C)CC(=O)c2c(N)n(Cc3ccccc3)c(=O)n(CC)c2=O)cc1OC | -75.5
50 | COc1cccc2cc(C(=O)Oc3ccccc3)c(=O)oc12 | -1.84
51 | CC1Cc2cc(/C(O)=C3/C(=O)C(=O)N(CCN4CCOCC4)C3c3ccc(C(C)C)cc3)ccc2O1 (stereo not shown) | 6.49
52 | c1ccc(CSc2nc3ccccc3[nH]2)cc1 | 17.6
53 | CN(C(=O)COC(=O)c1ccc([N+](=O)[O-])cc1N)c1ccccc1 | 9.38
54 | Cc1ccccc1NC(=O)CSc1nc(-c2ccccc2)cc(=O)[nH]1 | 24.9
55 | Cn1c(CNC(=O)c2cccs2)nnc1SCC(=O)Nc1ccccc1 | 1.81
56 | C[C@H](NC(=O)[C@@H]1Cc2ccccc2CN1)C(=O)Nc1ccc2c(c1)OCCO2 | 3.18
57 | Cc1ccc(C(=O)NCCC(=O)NCc2cc(=O)n(C)c(=O)n2C)cc1 | 3.48
58 | COC(=O)c1ccccc1NC(=O)CNc1ccc(F)c(S(=O)(=O)N2CCOCC2)c1 | -38.1
59 | Clc1cccc(CN2CCCCCC2)c1Cl | 0.798
60 | Cc1cccc(C)c1NC(=O)CSc1nnc([C@@H]2CCCN2C(=O)OC(C)(C)C)o1 | 2.31
61 | COc1cc(CNC(=O)C2CCC(=O)N(C3CCCCCC3)C2)cc(OC)c1 (stereo not shown) | -14.9
62 | COc1ccc(Cl)cc1/C=N/NC(=O)c1c(-c2ccccc2)noc1C | 2.15
63 | N/C(=N\OC(=O)c1ccccc1Cl)c1ccncc1 | 19.1
64 | Nc1nc(Sc2ccc(C(F)(F)F)cc2[N+](=O)[O-])n[nH]1 | -3.27
65 | COc1ccc(N2CCN(C(c3cccs3)c3nnnn3C3CCCC3)CC2)cc1 (stereo not shown) | -19.3
66 | CCCCN(C(=O)c1ccccc1OCc1ccc(F)cc1)c1c(N)n(CC(C)C)c(=O)[nH]c1=O | -5.4

Row | SMILES | hERG current change (%, negative = inhibition) at 10uM [%]
67 | COC(=O)c1ccc(NC(=O)CSc2nnc(-c3cccnc3)o2)cc1 | -0.978
68 | CCNc1nn2ccccc2c1/C=C(\C#N)C(=O)OCC | -4.06
69 | Cc1oc(C(=O)O)cc1COc1cccc2cccnc12 | -19.2
70 | CCOc1cc(-c2noc(CCC(=O)NCC3CCCO3)n2)ccc1OC (stereo not shown) | -3.08
71 | Cc1cc(C)cc(N2CC(C(=O)Nc3cc(C)on3)CC2=O)c1 (stereo not shown) | 9.42
72 | Cn1c(/C=C/N(Cc2ccccc2)c2ccccc2)c([N+](=O)[O-])c(=O)n(C)c1=O | -24.1
73 | CCc1nc(SCCO)c2oc3ccccc3c2n1 | 2.63
74 | COc1ccc(-c2cc3nc(C)cc(C)n3n2)cc1 | -2.36
75 | COC(=O)C1=C(c2ccc(F)cc2OCc2ccccc2)C[C@@H]2CC[C@H]1N2C(=O)NCc1ccc(Br)cc1 | 19.2
76 | CCOC(=O)c1c(C)[nH]c(C(=O)COC(=O)Cn2cc(C(F)(F)F)ccc2=O)c1C | 5.33
77 | CCn1c(SCC(=O)Nc2ccccc2)nnc1-c1ccc(S(=O)(=O)N2CCOCC2)cc1 | -16.5
78 | Cn1c(C(=O)NCc2ccccn2)cc2c(=O)n(C)c3ccccc3c21 | 2.2
79 | OC(CN1c2ccccc2Sc2ccccc21)Cn1nnc2ccccc21 (stereo not shown) | 15.8
80 | Cl.Nc1nonc1C(=O)NCCNCc1ccccc1OCc1ccccc1F | -60.5
81 | O=C(N=Nc1c(O)n(Cc2ccccc2)c2ccccc12)c1cc2ccccc2cc1O | 6.28
82 | O=C(O)C1CCC(N2C(=O)C3CCCCC3C2=O)CC1 (stereo not shown) | 11.2
83 | c1ccc(-c2nc(-c3cccs3)[nH]c2-c2ccccc2)cc1 | 22.5
84 | O=C(COc1ccc(-c2ccccc2)cc1)N/N=C/c1cccnc1 | 7.95
85 | COc1ccccc1CCNC(=O)C(=O)NCCC1CCCCN1S(=O)(=O)c1ccccc1 (stereo not shown) | -12.6
